{"source": "the supplement of paper PMC8728848", "binders": {"B1": {"name": "GH98CBM51-1 (Streptococcus pneumoniae) (protein)", "chain": "MTYLSDMDWSSATHGDIDKTKTVQKDAPFTTGNKGEHTKISLLTSDDKVKYFDKGIGTVADSPSVISYDISGQGFEKFETYIGIDQSANSSRSDHAVVDRIEIEIDGKVVYSSSVTNPEGFRYNTQAQFISVTIPQNAKKISLKSFAGEHTWGDEVVFADAKLIKTVST"}}, "assay_in_all_cases": "glycan array binding signal (z-score within array); higher = stronger binding", "details_in_all_cases": "glycan notation: IUPAC condensed, linker removed", "key": {"Fuc(a1-2)Gal": {"target": "Fuc(a1-2)Gal", "outline": "(§1)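 Arrays were curated from the Consortium for Functional Glycomics database, 3228 in total, and kept only where the protein sequence was available. Binding is expressed as a within-array Z-score. This score was averaged across arrays of the same protein sequence at different concentrations or buffers and across linkers, and negative values can be read as non-binding.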"}, "Fuc(a1-2)Gal(b1-3)GalNAc": {"target": "Fuc(a1-2)Gal(b1-3)GalNAc", "outline": "as §1"}, "[1]": {"target": "Fuc(a1-2)Gal(b1-3)GalNAc(a1-3)[Fuc(a1-2)]Gal(b1-4)Glc", "outline": "as §1"}, "[2]": {"target": "Fuc(a1-2)Gal(b1-3)GalNAc(a1-3)[Fuc(a1-2)]Gal(b1-4)GlcNAc", "outline": "as §1"}, "[3]": {"target": "Fuc(a1-2)Gal(b1-3)GalNAc(b1-3)Gal", "outline": "as §1"}, "[4]": {"target": "Fuc(a1-2)Gal(b1-3)GalNAc(b1-3)Gal(a1-4)Gal(b1-4)Glc", "outline": "as §1"}, "[5]": {"target": "Fuc(a1-2)Gal(b1-3)GalNAc(b1-4)[Neu5Ac(a2-3)]Gal(b1-4)Glc", "outline": "as §1"}, "Fuc(a1-2)Gal(b1-3)GlcNAc": {"target": "Fuc(a1-2)Gal(b1-3)GlcNAc", "outline": "as §1"}, "[6]": {"target": "Fuc(a1-2)Gal(b1-3)GlcNAc(b1-2)Man(a1-3)[Fuc(a1-2)Gal(b1-3)GlcNAc(b1-2)Man(a1-6)]Man(b1-4)GlcNAc(b1-4)GlcNAc", "outline": "as §1"}, "[7]": {"target": "Fuc(a1-2)Gal(b1-3)GlcNAc(b1-3)Gal(b1-4)Glc", "outline": "as §1"}, "[8]": {"target": "Fuc(a1-2)Gal(b1-3)GlcNAc(b1-3)[Fuc(a1-3)[Gal(b1-4)]GlcNAc(b1-6)]Gal(b1-4)Glc", "outline": "as §1"}, "[9]": {"target": "Fuc(a1-2)Gal(b1-3)[Fuc(a1-4)]GlcNAc", "outline": "as §1"}, "[10]": {"target": "Fuc(a1-2)Gal(b1-3)[Fuc(a1-4)]GlcNAc(b1-2)Man(a1-3)[Fuc(a1-2)Gal(b1-3)[Fuc(a1-4)]GlcNAc(b1-2)Man(a1-6)]Man(b1-4)GlcNAc(b1-4)GlcNAc", "outline": "as §1"}, "[11]": {"target": "Fuc(a1-2)Gal(b1-3)[Fuc(a1-4)]GlcNAc(b1-3)[Fuc(a1-3)[Gal(b1-4)]GlcNAc(b1-6)]Gal(b1-4)Glc", "outline": "as §1"}, "[12]": {"target": "Fuc(a1-2)Gal(b1-3)[Fuc(a1-4)]GlcNAc(b1-3)[Gal(b1-4)GlcNAc(b1-6)]Gal(b1-4)Glc", "outline": "as §1"}, "Fuc(a1-2)Gal(b1-4)Glc": {"target": "Fuc(a1-2)Gal(b1-4)Glc", "outline": "as §1"}, "Fuc(a1-2)Gal(b1-4)Glc6S": {"target": "Fuc(a1-2)Gal(b1-4)Glc6S", "outline": "as §1"}, "Fuc(a1-2)Gal(b1-4)GlcNAc": {"target": "Fuc(a1-2)Gal(b1-4)GlcNAc", "outline": "as §1"}, "[13]": {"target": "Fuc(a1-2)Gal(b1-4)GlcNAc(b1-2)Man(a1-3)[Fuc(a1-2)Gal(b1-4)GlcNAc(b1-2)Man(a1-6)]Man(b1-4)GlcNAc(b1-4)GlcNAc", "outline": "as §1"}, "[14]": {"target": "Fuc(a1-2)Gal(b1-4)GlcNAc(b1-3)Gal(b1-4)GlcNAc", "outline": "as §1"}, "[15]": {"target": "Fuc(a1-2)Gal(b1-4)GlcNAc(b1-3)Gal(b1-4)GlcNAc(b1-3)Gal(b1-4)GlcNAc", "outline": "as §1"}, "[16]": {"target": "Fuc(a1-2)Gal(b1-4)GlcNAc(b1-3)GalNAc", "outline": "as §1"}, "[17]": {"target": "Fuc(a1-2)Gal(b1-4)GlcNAc6S", "outline": "as §1"}, "[18]": {"target": "Fuc(a1-2)Gal(b1-4)[Fuc(a1-3)]GlcNAc", "outline": "as §1"}, "[19]": {"target": "Fuc(a1-2)Gal(b1-4)[Fuc(a1-3)]GlcNAc(b1-2)Man(a1-3)[Fuc(a1-2)Gal(b1-4)[Fuc(a1-3)]GlcNAc(b1-2)Man(a1-6)]Man(b1-4)GlcNAc(b1-4)GlcNAc", "outline": "as §1"}, "[20]": {"target": "Fuc(a1-2)Gal(b1-4)[Fuc(a1-3)]GlcNAc(b1-3)Gal(b1-4)[Fuc(a1-3)]GlcNAc", "outline": "as §1"}, "[21]": {"target": "Fuc(a1-2)Gal(b1-4)[Fuc(a1-3)]GlcNAc(b1-3)Gal(b1-4)[Fuc(a1-3)]GlcNAc(b1-3)Gal(b1-4)[Fuc(a1-3)]GlcNAc", "outline": "as §1"}, "Fuc(a1-2)Gal6S(b1-4)Glc": {"target": "Fuc(a1-2)Gal6S(b1-4)Glc", "outline": "as §1"}, "[22]": {"target": "Fuc(a1-2)Gal6S(b1-4)Glc6S", "outline": "as §1"}, "[23]": {"target": "Fuc(a1-2)Gal6S(b1-4)GlcNAc", "outline": "as §1"}}, "note": "This is one part of the list.", "data": [{"binder": "B1", "values": [{"measurement": "glycan array binding signal (z-score)", "setting": "Fuc(a1-2)Gal", "value": -0.186}, {"measurement": "glycan array binding signal (z-score)", "setting": "Fuc(a1-2)Gal(b1-3)GalNAc", "value": -0.19}, {"measurement": "glycan array binding signal (z-score)", "setting": "[1]", "value": -0.189}, {"measurement": "glycan array binding signal (z-score)", "setting": "[2]", "value": 0.247}, {"measurement": "glycan array binding signal (z-score)", "setting": "[3]", "value": -0.187}, {"measurement": "glycan array binding signal (z-score)", "setting": "[4]", "value": -0.161}, {"measurement": "glycan array binding signal (z-score)", "setting": "[5]", "value": -0.187}, {"measurement": "glycan array binding signal (z-score)", "setting": "Fuc(a1-2)Gal(b1-3)GlcNAc", "value": -0.174}, {"measurement": "glycan array binding signal (z-score)", "setting": "[6]", "value": -0.18}, {"measurement": "glycan array binding signal (z-score)", "setting": "[7]", "value": -0.191}, {"measurement": "glycan array binding signal (z-score)", "setting": "[8]", "value": -0.185}, {"measurement": "glycan array binding signal (z-score)", "setting": "[9]", "value": -0.189}, {"measurement": "glycan array binding signal (z-score)", "setting": "[10]", "value": -0.107}, {"measurement": "glycan array binding signal (z-score)", "setting": "[11]", "value": -0.192}, {"measurement": "glycan array binding signal (z-score)", "setting": "[12]", "value": -0.19}, {"measurement": "glycan array binding signal (z-score)", "setting": "Fuc(a1-2)Gal(b1-4)Glc", "value": -0.193}, {"measurement": "glycan array binding signal (z-score)", "setting": "Fuc(a1-2)Gal(b1-4)Glc6S", "value": -0.182}, {"measurement": "glycan array binding signal (z-score)", "setting": "Fuc(a1-2)Gal(b1-4)GlcNAc", "value": -0.191}, {"measurement": "glycan array binding signal (z-score)", "setting": "[13]", "value": -0.193}, {"measurement": "glycan array binding signal (z-score)", "setting": "[14]", "value": -0.193}, {"measurement": "glycan array binding signal (z-score)", "setting": "[15]", "value": -0.19}, {"measurement": "glycan array binding signal (z-score)", "setting": "[16]", "value": -0.194}, {"measurement": "glycan array binding signal (z-score)", "setting": "[17]", "value": -0.194}, {"measurement": "glycan array binding signal (z-score)", "setting": "[18]", "value": -0.192}, {"measurement": "glycan array binding signal (z-score)", "setting": "[19]", "value": -0.174}, {"measurement": "glycan array binding signal (z-score)", "setting": "[20]", "value": -0.196}, {"measurement": "glycan array binding signal (z-score)", "setting": "[21]", "value": -0.178}, {"measurement": "glycan array binding signal (z-score)", "setting": "Fuc(a1-2)Gal6S(b1-4)Glc", "value": -0.185}, {"measurement": "glycan array binding signal (z-score)", "setting": "[22]", "value": -0.177}, {"measurement": "glycan array binding signal (z-score)", "setting": "[23]", "value": -0.194}]}]}
